SMILES strings stand for the structures. About 1,700 (3.3%) of roughly 52,000 compounds were called active. Cut-off read from the data, not from the text of the source: active = survival mostly below about 52% (no sharp cut-off); inactive = mostly above about 56%. This is one part of the list.

This assay concerns Wild type. As to the kind of experiment: S. aureus survival, RN4220 and DeltatarO strains – OD600, teichoic acid synthesis inhibitors, primary screen (AID 463173). As to conditions: S. aureus RN4220 wild type/DeltatarO growth, OD600, 18 h, hits give low values, screened at 18.75 µg/mL (by protocol).
`COc1ccc(N2CCN(S(=O)(=O)c3ccc(-c4coc(C)n4)cc3)CC2)cc1`: the survival is inactive: 70%.
To `Cc1cc(Nc2ccc(F)cc2F)nc(-n2nc(C)cc2C)n1` belongs inactive: 59%; to `CCc1cc2c(cc3c(=O)n(CCCC(=O)NCc4cccc(Br)c4)ncn32)s1`, inactive: 74%.
To `COc1cc2c(cc1OC)n(CC(=O)c1cc(C)ccc1C)c(=O)n1nc(CCn3nc(C)cc3C)nc21` belongs inactive: 71%; to `Cc1c(CCNC(=O)c2ccc(C(C)(C)C)cc2)sc2nc(-c3ccc(F)cc3)nn12`, inactive: 105%; to `CC1=C(C(=O)Nc2cccnc2)C(c2ccc(C)cc2)n2nc(SCc3ccccc3F)nc2N1` (centres undefined), inactive: 84%.
The same measure for `CNS(=O)(=O)c1cn(CC(=O)N2CCN(c3ccc(C(C)=O)cc3)CC2)cc1S(=O)(=O)NC`: active: 10%.
As for `Cc1ccc(NC(=O)C(CC(C)C)N2Cc3ccccc3C2=O)cc1F` (centres undefined), the survival was active: -6%.
To `CN1CCN(c2nc(C#N)c(C#N)nc2C(C#N)=C2Nc3ccccc3N2)CC1` belongs inactive: 102%.
For the compound `Cc1ccc(-n2ncc(C(=O)NCc3ccc4c(c3)OCO4)c2C2CCN(C(=O)OC(C)(C)C)CC2)c(C)c1`, the survival is inactive: 81%.
For the compound `COc1ccc(CCNC(=O)CSc2cn(CCNC(=O)c3c(F)cccc3F)c3ccccc23)cc1OC`, the survival is inactive: 68%.
The same measure for `CN(C)c1ccc(NC(=O)Cn2c(SCc3ccc(F)cc3)nc3ccncc32)cc1`: inactive: 98%; for `COC(=O)c1ccc(NC(=O)c2cc(S(=O)(=O)N3CCOCC3)cn2C)cc1`: inactive: 84%.
Take `Cc1ccccc1OCC(=O)Nc1ccc(S(=O)(=O)N(Cc2ccccc2)c2ccccc2)cc1`: the survival was inactive: 82%.
To `CC(=O)Nc1ccc(NS(=O)(=O)c2c(C(=O)N3CCCCCC3)c(C)n(C)c2C)cc1` belongs inactive: 65%.
To `Cc1ccc(C(=O)COC(=O)CCC(=O)Nc2ccc(Oc3ccccc3)cc2)cc1` belongs inactive: 90%; to `COc1ccc(Cn2c(=O)c3oc4ccccc4c3n(CC(=O)Nc3c(C)cccc3C)c2=O)cc1`, inactive: 89%; to `NC(=O)c1ccc(NC(=O)c2ccccc2C(=O)O)cc1`, inactive: 112%.
To `COc1ccc(-c2nc3c(c(SCc4ccc(Br)cc4)n2)Cc2c(CO)cnc(C)c2O3)cc1` belongs inactive: 88%.
As for `Cc1ccc(OCCSc2nnc(-c3cccs3)o2)cc1`, the survival was inactive: 77%.
For `Cc1oc2cc3oc(=O)c(CCC(=O)NCCc4ccccc4F)c(C)c3cc2c1C`, the survival was inactive: 113%.
With `CCC(=O)N1c2ccccc2CC1C(=O)NCc1ccc(CC)cc1` (centres undefined), the survival was inactive: 143%.
In the case of `COc1cccc(NC(=O)CCN2CC(C)CC(C)C2)c1` (centres undefined), the survival is inactive: 111%.
The same measure for `CNC(=S)N1CCN(c2nc3ccccc3s2)CC1`: inactive: 108%.

The values above are taken from PubChem BioAssay AID463173 (ICCB-Longwood Screening Facility, Harvard Medical School, 2010).
